This is one part of the list. Single values of this set are uncertain.
Each molecule was assayed on U2OS (assay: Cell Painting induction (percent of morphological features significantly changed vs DMSO); higher = stronger morphological change). Conditions: 10 µM; 20 h; run: confirmation repeat.
Description: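 Cell Painting assay in U2OS cells: compounds at 10 µM for 20 h, six dyes, 579 robust CellProfiler features as Z-scores vs DMSO median (MAD). Induction is the % of significantly changed features (active if ≥5%); relative cell count is in % of DMSO. The primary run holds DCM compounds preselected for induction ≥10%; the confirmation repeat defines active compounds (370 of 549). Replicate agreement is low, attributed to precipitation.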
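Further: stains mark DNA, RNA and nucleoli, ER, actin, Golgi, plasma membrane and mitochondria, read by high-content imaging, with DMSO controls at matching solvent concentration.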

| SMILES | Cell Painting induction |
| --- | --- |
| CCOC(=O)CNC(=O)CNC(=O)C(Cc1ccc(N(CCCl)CCCl)cc1)NC(C)=O (configuration not stated) | active: 11.4% |
| CCCCCCNc1nc(OC)nc(N2CC3CC(C2)c2cccc(=O)n2C3)n1 (configuration not stated) | inactive: 1% |
| O=C1NC(=O)N(Cc2ccc(F)cc2)C(=O)/C1=C/Nc1ccc(Cl)cc1 | inactive: 0% |
| COc1ccc(-n2c(/C=C/c3cccc(F)c3)nc3ccccc3c2=O)c(OC)c1 | inactive: 0.9% |
| CCOC(=O)C(NC(=O)C(Cc1ccc(N(CCCl)CCCl)cc1)NC(C)=O)C(C)C (configuration not stated) | active: 21.9% |
| CCOc1cc2c(cc1OCC)-n1cccc1C(c1cccc(F)c1F)NC2 (configuration not stated) | active: 25% |

Same assay, conditions: 10 µM; 20 h; run: primary screen (compounds selected for induction >=10%)

| SMILES | Cell Painting induction [%] |
| --- | --- |
| CCOC(=O)CNC(=O)CNC(=O)C(Cc1ccc(N(CCCl)CCCl)cc1)NC(C)=O (configuration not stated) | 22.8 |
| CCCCCCNc1nc(OC)nc(N2CC3CC(C2)c2cccc(=O)n2C3)n1 (configuration not stated) | 11.6 |
| O=C1NC(=O)N(Cc2ccc(F)cc2)C(=O)/C1=C/Nc1ccc(Cl)cc1 | 11.6 |
| COc1ccc(-n2c(/C=C/c3cccc(F)c3)nc3ccccc3c2=O)c(OC)c1 | 26.1 |
| CCOC(=O)C(NC(=O)C(Cc1ccc(N(CCCl)CCCl)cc1)NC(C)=O)C(C)C (configuration not stated) | 28.8 |
| CCOc1cc2c(cc1OCC)-n1cccc1C(c1cccc(F)c1F)NC2 (configuration not stated) | 21.4 |

From the supplement of paper PMC11181314
